A number of entries come with more than one value. The list is limited to them. The source may hold further records. Results that share an entry repeat one measurement in other runs, samples, wells, individuals or studies. Marks such as (2×) count equal records among those shown.
Test system: 276233-004-R-J1-PDC KRAS spheroids with HUVEC/MSC, viability
Test: Anticancer human tumor 276233-004-R-J1-PDC patient-derived colon adenocarcinoma cell line growth inhibition [KRAS2]
Conditions: for viability, T/C: stronger effect = lower value; for IC50: compound alone
Text: Multicellular complex tumor spheroid response to RAS pathway inhibitors in combination with a targeted agents in patient-derived cell lines with oncogenic KRAS variants from multiple cancer types
A high-throughput screen of multi-cell type tumor spheroids was designed to identify active combinations of targeted small molecules and KRAS pathway inhibitors. Complex spheroids include a stromal component modeled by human endothelial cells (HUVEC) and fibroblasts modeled by human mesenchymal stem cells (MSCs). The concentration ranges selected for each drug and investigational agent were based upon clinically achievable concentrations if the clinical Cmax of the agent was known.
Compounds. The drugs and investigational agents: BI-3406 (NSC825286), BAY-293 (NSC824723), batoprotafib (TNO155; NSC825523), sotorasib (AMG 510; NSC818433), MRTX1257 (NSC819558), elimusertib (BAY 1895344; NSC800525), molibresib (GSK525762; NSC774829), temuterkib (LY3214996; NSC803410), venetoclax (NSC766270), alisertib (NSC759677), olaparib (NSC753686), talazoparib (NSC767125), erdafitinib (NSC781556), ipatasertib (NSC767898), cabozantinib (NSC761068), nintedanib (NSC756659), abemaciclib (NSC768073), docetaxel (NSC628503), trametinib (NSC758246), and sapanisertib (NSC764658) were obtained from the National Cancer Institute (NCI) Developmental Therapeutics Program Chemical Repository. The FDA-approved anticancer drug set is available from the Developmental Therapeutics Program. […] The stock solutions were prepared in dimethyl sulfoxide (DMSO, Sigma-Aldrich, St. Louis, MO, cat. D2650) at 800-fold the tested concentration and stored at -70 degrees C prior to their use. All drugs and investigational agents were tested over a range starting from a high concentration at or near the clinical Cmax and decreasing in half-log increments. If the clinical Cmax for an agent had not been determined, the highest concentration tested was 10 microM.
Cell Culture. All cells were maintained in an incubator at 37 degrees C and 5% CO2 with 95% humidity. The PDC lines were cultured according to standard operating procedures established by the NCI PDMR (https://pdmr.cancer.gov/sops/default.htm). Briefly, all PDCs were thawed and cultured in Matrigel-coated flasks prepared with a working solution of 1X Ham's F-12 nutrient mix, without supplementation (Invitrogen, Waltham, MA, cat. 11765054), 100 U/mL penicillin-streptomycin (Invitrogen, cat. 15140122), and 2.5% Matrigel (Corning Inc., Corning, NY, cat. 354248) for the first three passages. All PDCs were cultured in complete DMEM/F-12 media containing advanced DMEM/F-12 (Invitrogen, cat. 12634028), 4.9% defined fetal bovine serum, heat inactivated (HyClone Laboratories Inc., Logan, UT, cat. SH30070.03HI), 389 ng/mL hydrocortisone (Sigma-Aldrich, cat. H4001), 9.7 ng/mL human EGF recombinant protein (Invitrogen, cat. PHG0313), 23.4 microg/mL adenine (Sigma-Aldrich, cat. A2786), 97.3 U/mL penicillin-streptomycin (Invitrogen, cat. 15140122), 1.9 mM L-glutamine (Invitrogen, cat. 25030081), and 9.7 microM Y-27632 dihydrochloride (Tocris Bioscience, Bristol, United Kingdom, cat. 1254). The PDCs were cultured in complete DMEM/F12 media without 9.7 microM Y-27632 dihydrochloride for at least two passages prior to the screen. The established cell line HOP-62 was cultured in RPMI 1640 medium, HEPES (Invitrogen, cat. 22400105) with 10% defined fetal bovine serum (HyClone Laboratories Inc., cat. SH30070.03) and 2 mM L-glutamine (Invitrogen, cat. 25030081). The pooled donor HUVEC were cultured in endothelial cell growth medium 2 (PromoCell, Heidelberg, Germany, cat. C-22011) and the hMSC were cultured in mesenchymal stem cell growth medium 2 (PromoCell, cat. C-28009). For all experiments, HUVEC and hMSC were used at passages </=5, while the malignant cell lines were used at passages </=15. […]
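Note: cells exposed to agents for seven days before viability read.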
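Throughout, for viability, T/C: 100% = DMSO vehicle control wells and lower values mean fewer viable cells.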

Row | SMILES | viability, T/C (compound alone 0.1 µM) | viability, T/C (compound alone 0.316 µM) | viability, T/C (compound alone 1 µM) | viability, T/C (compound alone 3.16 µM) | viability, T/C (compound alone 10 µM) | IC50 (run of 07/12/2021) | IC50 (run of 07/19/2021) | viability, T/C (compound alone 0.0316 µM) | viability, T/C (compound alone 0.00316 µM)
1 | COc1cc2nc(C)nc(NC(C)c3cc(N)cc(C(F)(F)F)c3)c2cc1OC1CCOC1 (stereo unspecified) | 100, 77.7, 91.8, 95.4, 93.1, 72.5, 71.9, 88, 88.1, 87, 72.1, 91.3, 91, 83.1, 89.9, 82.9, 95.8% | 78.9, 78.3, 90, 85.5, 105, 72.7, 99, 94.8, 78, 89.5, 72.1, 77.8, 92.5, 82.1, 108, 85, 90.2% | 96, 90, 98.8, 80.4, 93.5, 71.1, 68.1, 82.1, 80.3, 83.9 (2×), 84.5, 85.2, 88.9, 89.6, 88.7, 89.7% | 64, 64.8, 75.9, 79.6, 86.2, 65.7, 78.9, 94.8, 99.2, 86.6, 75.7, 80.2, 62.6, 80.5, 67, 98.6, 85.8% | 72.9, 65.3, 87.8, 23.4, 34.7, 16.9, 20.4, 25.4, 33.1, 50.4, 21.2, 49.9, 45.1, 36.2, 36.1, 43.2, 48.8% | > 10 µM, 5.8 µM, 7.08 µM, 4.57 µM | 5.61 µM, 6.45 µM, 6.95 µM, > 10 µM, 5.47 µM | – | –
2 | CC1(C)CCC(CN2CCN(c3ccc(C(=O)NS(=O)(=O)c4ccc(NCC5CCOCC5)c([N+](=O)[O-])c4)c(Oc4cnc5[nH]ccc5c4)c3)CC2)=C(c2ccc(Cl)cc2)C1 | – | – | – | 106, 96.5, 83.1, 82.5, 73.1% | 59.5, 52.4, 77, 65.4, 49.3% | – | – | – | –
3 | CNCc1ccccc1-c1csc(C(C)Nc2nc(C)nc3cc(OC)c(OC)cc23)c1 (stereo unspecified) | 102, 92.3, 73.8, 85.5, 100 (2×), 99.6, 94.1, 95, 108, 94.9, 114, 88.4, 111, 106, 97.7, 104% | 94.8 (2×), 88.2, 87.5, 92.7, 78.5, 95.8, 87, 89.4, 90.8, 89.9, 86.2, 109, 83.5, 94.5, 86.9, 88.8% | 111, 104, 85.8, 86.6, 71.1, 84, 65.9, 59.6, 44.1, 66.2, 62, 93.5, 81.5, 73.3, 89.5, 87.3, 73.2% | 99.1, 74.9, 4.66, 3.91, 0.7, 2.24, 1.03 (2×), 0.4, 0.68, 0.66, 0.65, 0.64, 1.93, 0.9, 4.3, 3.69% | – | 5.85, 4.64, 1.62, 1.66, 1.42, 1.61 µM | – | – | –
4 | COc1cc2nccc(Oc3ccc(NC(=O)C4(C(=O)Nc5ccc(F)cc5)CC4)cc3)c2cc1OC | – | 89.6, 100, 79.2, 113, 77.7% | 91.6, 101, 84, 113, 79.6% | – | 112, 96.9, 96.2, 104, 83.6% | – | – | – | –
5 | CC(=O)OC12COC1CC(O)C1(C)C(=O)C(O)C3=C(C)C(OC(=O)C(O)C(NC(=O)OC(C)(C)C)c4ccccc4)CC(O)(C(OC(=O)c4ccccc4)C21)C3(C)C (stereo unspecified) | 88, 86.2, 90.9, 92.3, 55% | – | – | – | – | – | – | 92.2, 75.5, 84.8, 101, 71.1% | –
6 | CCN1CCN(Cc2ccc(Nc3ncc(F)c(-c4cc(F)c5nc(C)n(C(C)C)c5c4)n3)nc2)CC1 | – | – | – | – | – | – | – | 107, 83.5, 87.2, 79.6, 104% | 110 (2×), 82.2, 92.8, 98.3%
7 | CC1OCC2(CCN(c3cnc(Sc4ccnc(N)c4Cl)c(N)n3)CC2)C1N (stereo unspecified) | 77.8 (2×), 102 (2×), 76.5, 89.5, 85.1, 86.4, 66, 86.5, 80, 84.3, 84.2, 97.1, 95.1, 90.1, 83.4, 101, 89.3% | 68.5, 86.9, 85.1, 87.2, 77.7, 77.8, 71.6, 77.4, 81 (2×), 74.8, 96.2, 81.2, 82, 89.4, 89.1, 76.9, 90.4, 83.4, 79.7% | 88.1, 109, 89.4, 59.7, 60.6, 57.8, 72.8, 73.6, 61.7, 69.3, 68.8, 73.5, 76.2, 78.9, 79.4, 82.4, 65.9, 83.1, 64.9, 84.5% | 36.5, 47.5, 55.3, 50.4, 52.6, 48, 54.4, 56.9, 62.3, 70.6, 74.1, 63.3, 82.6, 68.1, 78.2, 65.6, 73.6, 61.3, 81.4% | 36.1, 49.4, 50.8, 47, 42.1, 56.2, 75.6, 57.6, 71, 55.3, 67.7, 54.5, 70.9, 61.4, 68, 64.1, 61.8, 54.1, 72.5% | 2.18 µM, 2.99 µM, 9.04 µM, > 10 µM, 4.75 µM, 2.28 µM | – | – | –
8 | CC1COCCN1c1cc(-c2ccnn2C)c2ccnc(-c3ccn[nH]3)c2n1 (stereo unspecified) | – | 80.8, 72.3, 93.7, 68, 82.8% | 76.2, 67.7, 68.7, 43.8, 78.5% | 63.3, 53.2, 66.2, 18.2, 52.2% | – | – | – | 91.3, 103, 112, 78.7, 111% | –

Reference: PubChem BioAssay AID1963873 (Molecular Pharmacology Branch, DTP, NCI, 2024)
